The list shows a part of the results. The full chains were built here from the parent and the listed change. Values near 0.05 are background.

To fix the notation:
B1: TEV protease; numbered along this chain (parent)
chain: MGESLFKGPRDYNPISSSICHLTNESDGHTTSLYGIGFGPFIITNKHLFRRNNGTLVVQSLHGVFKVKDTTTLQQHLVDGRDMIIIRMPKDFPPFPQKLKFREPQREERICLVTTNFQTKSMSSMVSDTSCTFPSGDGIFWKHWIQTKDGQCGSPLVSTRDGFIVGIHSASNFTNTNNYFTSVPKNFMELLTNQEAQQWVSGWRLNADSVLWGGHKVFMVKPEEPFQPVKEATQL

The test covers variants of B1. Nature of the test: raw area under fraction-flipped curve 0-4 h after induction (AUC4h, not background-subtracted), DNA-recorder readout of cleavage of the substrate (dimensionless); higher = more cleavage of the substrate by the protease variant. The settings on record: temperature: 34 °C; time window: 0-4 h after rhamnose induction. Here is the method: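 In vivo DNA recorder in E. coli TOP10(DE3) ΔrhaA at 34 °C. Each TEVp single-site mutant (parent TEVp 0) is paired with a single-site variant of the 7-mer TEVs (canonical ENLYFQ|S). The substrate sits between flexible linkers in a Bxb1-sfGFP-TEVs-SsrA fusion, so cleavage stabilises Bxb1 and speeds flipping of a recombination array, read by NGS. The value is the raw area under the fraction-flipped curve over 0-4 h after rhamnose induction (AUC4h), with ≥20 reads per time point. It is not background-subtracted; inactive controls average about 0.047.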
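Further: Bxb1 expression induced with 0.2% (w/v) L-rhamnose at OD600 near 0.5, cultures sampled hourly, flipped fraction per protease–substrate barcode pair counted by paired-end Illumina sequencing.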

In the case of MGESLFKGPRDYNPISSSICHLTNESDGHTTSLYGIGFGPFIITNKHLFRRNNGTLVVQSLHGVFKVKDTTTLQQHLVDGRDMIIIRMPKDFPPFPQKLKFREPQREERICLVTTNFQTKSMSSMVSDTSCTFPSGDGIFWKHWIQTKDGQCGSPLVSTRDGFIVGIHSASNFTNTNNYFTSVPKNFMELLRNQEAQQWVSGWRLNADSVLWGGHKVFMVKPEEPFQPVKEATQL [T192R], the “area with substrate ENLYAQS” value is 0.0809, the “area with substrate ENLYDQS” value turned out to be 0.0687, the “area with substrate ENLYEQS” value came out at 0.0657 and the “area with substrate ENLYGQS” value came to 0.0665. For the same variant, the “area with substrate ENLYHQS” value is 0.063, the “area with substrate ENLYIQS” value was found to be 0.0869, the “area with substrate ENLYKQS” value was 0.0474 and the “area with substrate ENLYNQS” value came to 0.0731. Also, the “area with substrate ENLYPQS” value is 0.0795, the “area with substrate ENLYQQS” value came out at 0.0288, the “area with substrate ENLYRQS” value was 0.0666 and the “area with substrate ENLYSQS” value worked out at 0.0743. Besides, the “area with substrate ENLYVQS” value is 0.135, the “area with substrate ENLYWQS” value worked out at 0.0917 and the “area with substrate ENLYYQS” value came out at 0.0662.

With MGESLFKGPRDYNPISSSICHLTNESDGHTTSLYGIGFGPFIITNKHLFRRNNGTLVVQSLHGVFKVKDTTTLQQHLVDGRDMIIIRMPKDFPPFPQKLKFREPQREERICLVTTNFQTKSMSSMVSDTSCTFPSGDGIFWKHWIQTKDGQCGSPLVSTRDGFIVGIHSASNFTNTNNYFTSVPKNFMELLNNQEAQQWVSGWRLNADSVLWGGHKVFMVKPEEPFQPVKEATQL [T192N], the “area with substrate ENLYAQS” value amounted to 0.0722, the “area with substrate ENLYDQS” value turned out to be 0.0691, the “area with substrate ENLYEQS” value was 0.0592 and the “area with substrate ENLYGQS” value is 0.0469. The “area with substrate ENLYIQS” value was found to be 0.136, the “area with substrate ENLYKQS” value was found to be 0.0533, the “area with substrate ENLYLQS” value stood at 0.0792 and the “area with substrate ENLYNQS” value came out at 0.0731. Also, the “area with substrate ENLYPQS” value is 0.065, the “area with substrate ENLYRQS” value came to 0.0567, the “area with substrate ENLYSQS” value is 0.0706 and the “area with substrate ENLYVQS” value is 0.145. For the same variant, the “area with substrate ENLYYQS” value stood at 0.0732.

For MGESLFKGPRDYNPISSSICHLTNESDGHTTSLYGIGFGPFIITNKHLFRRNNGTLVVQSLHGVFKVKDTTTLQQHLVDGRDMIIIRMPKDFPPFPQKLKFREPQREERICLVTTNFQTKSMSSMVSDTSCTFPSGDGIFWKHWIQTKDGQCGSPLVSTRDGFIVGIHSASNFTNTNNYFTSVPKNFMELLTNQEAQQGVSGWRLNADSVLWGGHKVFMVKPEEPFQPVKEATQL [W199G], the “area with substrate ENLYAQS” value turned out to be 0.0669, the “area with substrate ENLYDQS” value is 0.0629, the “area with substrate ENLYEQS” value turned out to be 0.0599 and the “area with substrate ENLYGQS” value stood at 0.066. Moreover, the “area with substrate ENLYHQS” value worked out at 0.0734, the “area with substrate ENLYKQS” value came out at 0.0509, the “area with substrate ENLYMQS” value was 0.069 and the “area with substrate ENLYRQS” value worked out at 0.057. Besides, the “area with substrate ENLYSQS” value was determined as 0.0621, the “area with substrate ENLYVQS” value was 0.0748 and the “area with substrate ENLYWQS” value was 0.0662.

In the case of MGESLFKGPRDYNPISSSICHLTNESDGHTTSLYGIGFGPFIITNKHLFRRNNGTLVVQSLHGVFKVKDTTTLQQHLVDGRDMIIIRMPKDFPPFPQKLKFREPQREERICLVTTNFQTKSMSSMVSDTSCTFPSGDGIFWKHWIQTKDGQCGSPLVSTRDGFIVGIHSASNFTNTNNYFTSVPKNFMELLTNQEAQQWVSGWRLNSDSVLWGGHKVFMVKPEEPFQPVKEATQL [A207S], the “area with substrate ENLYAQS” value worked out at 0.0644, the “area with substrate ENLYCQS” value came to 0.0948, the “area with substrate ENLYDQS” value came to 0.0733 and the “area with substrate ENLYEQS” value worked out at 0.069. Besides, the “area with substrate ENLYGQS” value amounted to 0.0703, the “area with substrate ENLYHQS” value stood at 0.0748, the “area with substrate ENLYKQS” value worked out at 0.067 and the “area with substrate ENLYLQS” value was found to be 0.0779. In addition, the “area with substrate ENLYNQS” value stood at 0.0746, the “area with substrate ENLYPQS” value is 0.0886, the “area with substrate ENLYQQS” value was 0.062 and the “area with substrate ENLYRQS” value is 0.0635. The “area with substrate ENLYSQS” value amounted to 0.0802, the “area with substrate ENLYTQS” value was found to be 0.0813 and the “area with substrate ENLYVQS” value was found to be 0.129.

For MGESLFKGPRDYNPISSSICHLTNESDGHTTSLYGIGFGPFIITNKHLFRRNNGTLVVQSLHGVFKVKDTTTLQQHLVDGRDMIIIRMPKDFPPFPQKLKFREPQREERICLVTTNFQTKSMSSMVSDTSCTFPSGDGIFWKHWIQTKDGQCGSPLVSTRDGFIVGIHSASNFTNTNNYFTSVPKNFMELLTNQEAQQWVSGWRLNMDSVLWGGHKVFMVKPEEPFQPVKEATQL [A207M], the “area with substrate ENLYAQS” value came out at 0.063, the “area with substrate ENLYDQS” value amounted to 0.0623, the “area with substrate ENLYEQS” value turned out to be 0.0762 and the “area with substrate ENLYHQS” value was found to be 0.0623. Further, the “area with substrate ENLYNQS” value was 0.0596, the “area with substrate ENLYPQS” value is 0.065, the “area with substrate ENLYSQS” value is 0.0697 and the “area with substrate ENLYTQS” value amounted to 0.0745. The “area with substrate ENLYVQS” value came out at 0.131 and the “area with substrate ENLYWQS” value worked out at 0.0752.

Take MGESLFKGPRDYNPISSSICHLTNESDGHTTSLYGIGFGPFIITNKHLFRRNNGTLVVQSLHGVFKVKDTTTLQQHLVDGRDMIIIRMPKDFPPFPQKLKFREPQREERICLVTTNFQTKSMSSMVSDTSCTFPSGDGIFWKHWIQTKDGQCGSPLVSTRDGFIVGIHSASNFTNTNNYFTSVPKNFMELLTNQEAQQWVSGWILNADSVLWGGHKVFMVKPEEPFQPVKEATQL [R204I]: the “area with substrate ENLYAQS” value was found to be 0.0715, the “area with substrate ENLYCQS” value is 0.0853, the “area with substrate ENLYDQS” value came out at 0.0535 and the “area with substrate ENLYEQS” value worked out at 0.0618. Further, the “area with substrate ENLYGQS” value amounted to 0.0718, the “area with substrate ENLYHQS” value was determined as 0.0669, the “area with substrate ENLYKQS” value came out at 0.0701 and the “area with substrate ENLYLQS” value came out at 0.0533. The “area with substrate ENLYMQS” value was 0.0888, the “area with substrate ENLYNQS” value was 0.0733, the “area with substrate ENLYPQS” value was found to be 0.0775 and the “area with substrate ENLYRQS” value amounted to 0.0698. Further, the “area with substrate ENLYSQS” value is 0.0765, the “area with substrate ENLYTQS” value is 0.0889, the “area with substrate ENLYVQS” value was determined as 0.121 and the “area with substrate ENLYWQS” value turned out to be 0.0774. Moreover, the “area with substrate ENLYYQS” value turned out to be 0.0571.

MGESLFKGPRDYNPISSSICHLTNESDGHTTSLYGIGFGPFIITNKHLFRRNNGTLVVQSLHGVFKVKDTTTLQQHLVDGRDMIIIRMPKDFPPFPQKLKFREPQREERICLVTTNFQTKSMSSMVSDTSCTFPSGDGIFWKHWIQTKDGQCGSPLVSTRDGFIVGIHSASNFTNTNNYFTSVPKNFMELLTNQEAQQWCSGWRLNADSVLWGGHKVFMVKPEEPFQPVKEATQL [V200C]: the “area with substrate ENLYAQS” value worked out at 0.0636, the “area with substrate ENLYDQS” value was determined as 0.0287, the “area with substrate ENLYEQS” value stood at 0.0572 and the “area with substrate ENLYGQS” value is 0.0438. In addition, the “area with substrate ENLYHQS” value is 0.0659, the “area with substrate ENLYIQS” value came out at 0.0896, the “area with substrate ENLYKQS” value was 0.0155 and the “area with substrate ENLYMQS” value was found to be 0.0826. In addition, the “area with substrate ENLYNQS” value stood at 0.0638, the “area with substrate ENLYPQS” value was determined as 0.0829, the “area with substrate ENLYQQS” value amounted to 0.0781 and the “area with substrate ENLYRQS” value was determined as 0.0648. For the same variant, the “area with substrate ENLYSQS” value came to 0.0663, the “area with substrate ENLYTQS” value stood at 0.0791, the “area with substrate ENLYVQS” value was 0.127 and the “area with substrate ENLYWQS” value was 0.061.

Consider MGESLFKGPRDYNPISSSICHLTNESDGHTTSLYGIGFGPFIITNKHLFRRNNGTLVVQSLHGVFKVKDTTTLQQHLVDGRDMIIIRMPKDFPPFPQKLKFREPQREERICLVTTNFQTKSMSSMVSDTSCTFPSGDGIFWKHWIQTKDGQCGSPLVSTRDGFIVGIHSASNFTNTNNYFTSVPKNFMELLTNQEAQQWVDGWRLNADSVLWGGHKVFMVKPEEPFQPVKEATQL [S201D], for which the “area with substrate ENLYAQS” value was found to be 0.0641, the “area with substrate ENLYCQS” value came out at 0.103, the “area with substrate ENLYDQS” value is 0.0612 and the “area with substrate ENLYEQS” value is 0.0628. In addition, the “area with substrate ENLYGQS” value worked out at 0.0531, the “area with substrate ENLYHQS” value turned out to be 0.0619, the “area with substrate ENLYIQS” value amounted to 0.111 and the “area with substrate ENLYKQS” value was 0.0607. The “area with substrate ENLYMQS” value stood at 0.0624, the “area with substrate ENLYNQS” value turned out to be 0.0527, the “area with substrate ENLYPQS” value amounted to 0.0718 and the “area with substrate ENLYQQS” value stood at 0.0444. The “area with substrate ENLYRQS” value was 0.0479, the “area with substrate ENLYSQS” value was found to be 0.0703 and the “area with substrate ENLYVQS” value amounted to 0.104.

The values above are taken from the supplement of paper PMC12217912.
